Measurements: the supplement of paper PMC3334620
Whole data set: some 33,000 sequences, median “E-score (-0.5 to 0.5)” near -0.054, cut for the highest 2% near 0.39. This is one part of the list.

Biological target: Ylr278c (UniProt Q05854)
Assay: PBM E-score (8-mer binding enrichment) (E-score (-0.5 to 0.5)); higher = stronger / more preferred TF binding; most listed sequences are background and not binding sites
Conditions: protein concentration: 200 nM; construct: GST-DNA-binding domain
In short: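 GST-tagged yeast TFs (full-length or DNA-binding domain) were made by PURExpress in vitro transcription/translation and applied at about 100-200 nM to universal all-10-mer Agilent arrays. The arrays were made double-stranded by primer extension, on fresh or once-stripped slides. Bound protein was detected with fluorescent anti-GST, and scans were normalised with masliner. Each ungapped eight-base word, pooled with its reverse complement, received an E-score (modified Wilcoxon-Mann-Whitney statistic) from the Universal PBM Analysis Suite.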

Sequence | PBM E-score
AAGAGGGC | -0.282
TAGTCGCA | -0.0137
CGAATGCG | 0.223
CTCAGCCA | -0.0917
TAATAAAA | -0.0513
GCCAAAAC | -0.0997
CACACCCG | 0.0332
CAGGGCCA | -0.226
CTGATTTC | -0.0243
AACGCTAT | -0.0678
ACGATCCT | -0.239
CAATATTC | 0.0142
CCAGGAAC | -0.118
ATGCGGGG | 0.161
CTCATTTA | 0.0721
AGGTCCAA | -0.179
CAGGATAA | -0.155
AACGGATT | 0.276
TCAAGGCA | -0.265
GCAATGGC | 0.049
CCTCGGAG | 0.456
AGCCAGAA | -0.217
AGACAGTC | -0.129
AACTGAAG | -0.106
CTCGGGAC | 0.272

Sequence | PBM E-score
ACTGGGCG | 0.0351
ACGGTGCA | -0.198
TACTGTGA | -0.0654
ACGTTGTA | -0.0605
GGGACACC | -0.0306
CAAGTGCC | -0.188
ACCGATAG | 0.124
CCGGACCG | 0.426
TACAAAGA | -0.0951
AGCAATCC | 0.0971
GCTTGAAC | 0.0541
CATCAGAG | -0.181
CCGGCGGA | 0.456
ATATCAGA | 0.0583
TCCTCCGA | 0.43
GTAGATAA | 0.0815
CGTGTTTC | 0.0625
TCGCCGAA | 0.327
ACACAAGT | -0.254
TAAGTCCA | 0.00247
ATTCTCTA | -0.0579
CCAGATGC | -0.112
GACGCCCC | 0.179
CCAAAGAC | -0.0458
ATAACCAG | -0.116

Sequence | PBM E-score
ATCGCCAG | 0.00501
AAGCGTAG | -0.123
AATGAGAT | -0.0336
GCTAGACC | -0.095
GTTACGTA | -0.296
CATAGAAA | 0.00301
ATGCAGGA | -0.153
AGCGATCC | 0.119
AGCTCCCT | -0.204
GCTCTGGA | -0.1
AACGATGT | -0.16
CAGGCATG | -0.0835
CAGCGACG | -0.0577
CGCAAGAC | -0.0829
GCGGGATA | 0.266
AGGAGACG | -0.12
CCACACAG | -0.144
ATACATAA | -0.167
GCCATATA | -0.0508
CCAATTCA | -0.278
CTTAAGTA | -0.106
GGTAAATA | 0.107
ACGGAGGG | 0.318
CCTGTACA | 0.0467
AGTTACCA | -0.0694

Sequence | PBM E-score
AGCATGGC | -0.169
CATGTGCA | -0.146
AAGTTATG | -0.0742
ATCTACGA | -0.25
ACTGGGAA | 0.0902
GAAGTATC | -0.0367
ACGTGAGT | -0.183
CAACCAGG | -0.275
ACCTATAT | 0.0976
TACGACCA | -0.288
AGAGCACA | -0.212
AATCGCTC | -0.179
CCGGTAGA | 0.272
AGCTCCAG | -0.108
CCGCGATA | 0.232
CATTTTAA | -0.00071
GCACGAGA | -0.0575
GCCGGTTA | 0.19
CAATTAGA | -0.237
CACGTGAC | -0.195
CCATCGGC | 0.282
CTCTTCAC | -0.154
AATAATCA | -0.0452
GCTTTTGA | -0.0305
CATCATGG | -0.141

Sequence | PBM E-score
CCGGTGTC | 0.352
ACTTGGTG | -0.247
ACAGCGTG | -0.17
AGAGAACT | -0.124
AGCCCGAA | 0.297
CAAGTCGA | -0.278
CGCACGAA | -0.0815
GACTTCAA | -0.0884
GGTTTATA | 0.00308
GATCGTCA | -0.0693
AAGAGCAG | -0.228
ACTCGGAT | 0.251
AAGCTATG | -0.249
TCGCTCCA | -0.139
GCACAACA | -0.0315
ACCACTGC | -0.184
AGGACGCA | -0.0283
CCCCGCGG | 0.328
GGTCGCTA | -0.0221
CATCAGCC | -0.176
GATCAAGA | 0.127
AACGCGGG | 0.301
AATGAAAC | -0.047
CACCGAGG | 0.142
AAACTCGG | 0.343

Sequence | PBM E-score
ACCTCCTG | -0.253
ACCCTGGG | -0.153
GCGATCCA | -0.0934
AGACGCCA | -0.25
TACCTTCA | -0.22
CCAGCCAG | -0.234
AGATATTA | -0.0403
CATGATCA | -0.112
TAAGAGTA | -0.0846
CCAGAGGC | -0.238
CTGCATTA | -0.0765
GGACTGGA | -0.0465
AGGCTATA | -0.233
CCGCTTAA | 0.183
ACCTGGGG | -0.205
CGACGCCC | 0.226
AAAGAGTC | -0.0444
AAGTGTCT | -0.164
ATTTACAG | -0.123
ACAGATTC | -0.0942
GCACCGCA | -0.0796
TGTCGACA | -0.252
AGGTGAAG | -0.202
GTACATAA | -0.0326
GCCGCCCC | 0.282

Sequence | PBM E-score
ACTGCAGC | -0.0727
ATCGGCAA | 0.248
ACCGCCAC | 0.0241
AAGGAATT | 0.00527
CTGCTGCC | -0.133
GGTAGACA | -0.018
ATCTCTTA | 0.019
AGAGTCCC | -0.00816
ATGTGCAC | -0.0408
AAGCAGCT | -0.121
AATAGAGA | -0.139
GCATAGAA | -0.0675
CAAGCGAG | -0.0181
CATCCCCA | -0.109
ACGAACGG | 0.197
GTGGAGTA | -0.135
ACGTCTCG | -0.161
CATTAATA | 0.0436
AACCGTGG | -0.0901
ACCCAGTA | -0.208
CCGCGCGC | 0.28
CAACTGGA | -0.0975
AAGAATTG | -0.0343
GATGCGCC | 0.0693
GACACACC | 0.0326

Sequence | PBM E-score
TGAGCCAA | -0.258
CTATGCAC | -0.205
ATGGGAGC | 0.0653
TAGCCATA | -0.329
ACGCTAGC | -0.171
AGAATTAC | 0.094
GCTAGAAA | 0.0266
CTCACACA | -0.195
GAATGTCA | -0.0849
CCAGACCA | -0.252
TGACACAA | -0.0829
AATGTGTC | -0.0466
CCATCCCA | -0.129
CGTTCTCA | -0.234
CCCTTAGA | -0.393
CAACCATC | -0.0633
GGTTCGAC | -0.153
ACTACGCA | -0.127
CAGAGAGC | -0.184
AACGGGCC | 0.00373
AGTGCATA | -0.184
ATCTCCCC | -0.00596
ACAAATTA | 0.0532
ATGGGTCA | -0.232
CCCGACAC | 0.252

Sequence | PBM E-score
CAAGTTGG | -0.036
ATCCCATA | 0.0702
ATACTGCG | 0.0328
AGTCACAA | -0.201
CATGGTCC | -0.0406
CATGCGGC | -0.00255
ATAGCAAA | -0.221
GTATGAGA | 0.0106
GCAAGCCC | 0.0968
AAGCGCGG | 0.155
ATGAGGAA | 0.0172
CCAAGCGA | -0.245
CCTTAATA | -0.107
GATGCATA | -0.0948
ACTGGTGA | -0.282
CCCCCCCA | -0.309
CACTCTCC | 0.183
CAAGATAG | -0.213
GGTACAGA | -0.022
CATCCTGC | -0.183
GCGATTAC | 0.0139
GACCGCGA | 0.193
CCACTCAC | -0.098
GCGTGAGA | -0.0361
ATTTTTGC | 0.00321

Sequence | PBM E-score
AACCTTTC | -0.0569
ATTGTCGG | 0.306
CGGAAAAG | 0.373
AACCAGCA | -0.144
CTAGAGCC | -0.118
CCACAACC | 0.00674
AAGAGAGT | -0.0766
AGCACGAG | -0.0826
GGTATCAA | 0.054
CGAGAACG | 0.232
AGGGATCC | 0.183
ATGTCGCG | 0.101
GCGAGACC | -0.173
ACTTGTTC | -0.121
GCTGACCA | -0.0869
GAAGAACC | 0.0353
AATGAATT | -0.0288
CCTCCCGC | 0.0967
ACAGGACC | -0.0185
AGCATCCC | -0.0289
CACATGGG | -0.0634
AGACCGAT | 0.163
GTTGGGGA | 0.0498
AGTGGGTA | 0.11
CACGCAGA | -0.109

Sequence | PBM E-score
TATGGGAA | -0.171
AAAAACGA | -0.117
ACTACAAC | 0.021
TCTCCGCA | 0.407
CAGGTACC | -0.134
AGTCTGCG | -0.278
GAAGCGTC | -0.17
GAACGGGC | -0.0384
CCTCCTCG | -0.206
CACGGCTC | -0.00207
GCGTACAA | -0.249
ACTATGCG | 0.0962
CTCGCATC | -0.0684
AGCATGAA | -0.0789
ATGACCTC | -0.154
AATGGTCT | 0.0209
ACTCAGCG | -0.0317
GGGCAAGA | 0.138
GATTAGAA | -0.0156
CTTCAGAC | -0.158
CTATGTTA | 0.107
CCGTTTAC | 0.163
CATGTACA | -0.261
AGGGGAAA | -0.0865
AACTGCGC | 0.111

Sequence | PBM E-score
CCGTGACG | 0.0727
AATTGGCG | 0.0426
GTAGCCAC | -0.28
GATGATGA | -0.00455
AAGATTTG | -0.163
CAACGTCC | 0.185
AAGATTGT | -0.0718
ATTACTCC | 0.239
GAGTAGGA | 0.0925
CAACTAGA | -0.179
AAGATATC | -0.0284
CTATTTGC | -0.0712
CCTCGTTA | -0.324
GCGGCTTA | 0.107
GTCAAATA | -0.129
CTTATATA | -0.0613
CGCACTTC | 0.141
AAATTACA | 0.0234
GCCGAGAA | 0.259
AGTTTCTA | -0.214
CTTTCAGC | 0.157
TCGATTAA | 0.0061
AGTGCGCC | 0.0447
CGGCTATA | 0.172
AACCCCTT | -0.071

Sequence | PBM E-score
CTCCAAAA | -0.0959
CAAGCACC | -0.222
CTTACCTA | -0.193
GACTCGAC | -0.0577
ACCACACG | -0.17
GCCTGGTA | -0.305
CATGGAGG | -0.29
CTAGCGCC | -0.0798
GGTCTAAC | -0.0157
AAGTGTGC | -0.0194
CACTACCA | 0.00647
GCTGTTAC | -0.0654
AACCAACT | -0.108
GTAGAGAC | -0.216
ATTTGGTC | -0.00782
ACATAACC | 0.124
ACGCATCC | -0.0716
CCTTTTGA | -0.133
CAGCGTGG | -0.141
CCGATCTC | 0.282
CGGTACAG | 0.129
CGGTTAAG | 0.0963
AAGGACCT | -0.144
AGTGAATC | -0.0302
GCAAGAGC | -0.135

Sequence | PBM E-score
GAATCCCC | 0.145
CACATCCG | 0.309
GCCAGTCA | -0.235
ACTCAGTC | -0.221
CGATGACG | 0.0955
AGCATAAT | 0.00492
GCCCTCTA | -0.208
AAAACATG | -0.0175
CAGTTACA | -0.0913
ACGCTCAG | -0.197
GCAGGGCA | -0.11
CTCTCGAC | -0.219
GCGATTCA | -0.106
AGCTGATC | -0.0271
CGACGGGA | 0.265
AGTAGTAA | -0.124
AGATATCG | -0.168
AGGGACCG | -0.14
CACTGTGA | -0.267
